In PubChem BioAssay AID588855 (National Center for Advancing Translational Sciences (NCATS), 2011):
Among all 410,000 compounds or so, about 5,000 (1.2%) were called active. The inconclusive results got no clear call from the source; some entries with a clear call stand among them for comparison. Calls follow the shape of the dose curve; as a rule, active = well fitted inhibition curve with a large enough effect; inconclusive = small, poorly fitted or top-dose-only effect; inactive = no such curve, though single readings can be large or run the other way. Where the call is inconclusive, the potency comes from a doubtful curve fit.

assay: qHTS for Inhibitors of TGF-b; settings: HepG2 CAGA-GFP TGF-b/SMAD3 reporter, GFP fluorescence, 18 h, TGF-beta stimulated, 500 pg/mL final; series mostly up to 46.1 µM; activity, negative = inhibition: at the top concentration; also: nearly all actives have a fitted effect of over 65% in size
Summary of the method: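 Smad-responsive CAGA-GFP expression was quantified in HEPG2 cells exposed to compounds and 500 pg/mL final TGF-beta for 18 h at 37 degrees C; unstimulated wells defined full inhibition.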
% is scaled to controls: 0 for no effect and ±100 for the full control effect; potency is read from the fitted curve at half-maximal effect; tags tell the direction and shape of the fitted curve.

**Q.** With CCc1nnc(NC(=S)Nc2ccccc2)s1 as the molecule, how does the “activity, negative = inhibition” value read?
**A.** Its value is inactive: -2.85%.

**Q.** For CCN(CC)c1ccc(NS(=O)(=O)c2ccc(-c3coc(C)n3)cc2)c(C)c1, which Potency is on record?
**A.** The Potency was inconclusive: 35.5 µM [inhibitor, single point].

**Q.** Which “activity, negative = inhibition” value does the source give for Cc1ccc(Oc2nc3ccccn3c(=O)c2/C=C(\C#N)c2nc3ccccc3s2)c(C)c1 here?
**A.** The value was inactive: -16.7%.

**Q.** With CCN(CC)c1cc(C)c2cc(NC(=O)/C=C/c3ccccc3OC(C)C)ccc2n1 as the molecule, how does the Potency read?
**A.** The Potency was inconclusive: 5.01 µM [inhibitor, single point].

**Q.** With Cc1ccc(N2C(=O)c3ccccc3C2=O)cc1 as the molecule, how does the Potency read?
**A.** Its Potency is inconclusive: 35.5 µM [inhibitor, single point].

**Q.** For Cn1nc(-c2ccccc2)c(C(O)c2ccc(Cl)cc2)c1Cl (stereo not drawn), which “activity, negative = inhibition” value is on record?
**A.** The value was inactive: -0.264%.

**Q.** For Cc1cccc(CSc2ccc(S(=O)(=O)N3CCCC3)cn2)c1, which Potency is on record?
**A.** Its Potency is inconclusive: 17.8 µM [inhibitor, single point].

**Q.** Which “activity, negative = inhibition” value does the source give for COc1ccc(-c2oc3ncn4nc(-c5ccccc5Cl)nc4c3c2-c2ccc(OC)cc2)cc1 here?
**A.** The value was inactive: 14.9%.

**Q.** With Cc1cc2c(ccc3[nH]onc32)n1 as the molecule, how does the Potency read?
**A.** Its Potency is inconclusive: 22.4 µM [inhibitor, single point].

**Q.** With COc1ccccc1C1CC(c2ccco2)=NN1S(C)(=O)=O (stereo not drawn) as the molecule, how does the “activity, negative = inhibition” value read?
**A.** The value was inactive: 15.5%.

**Q.** For COc1ccc(S(=O)(=O)N2CCOCC2)cc1, which Potency is on record?
**A.** The Potency was inconclusive: 5.62 µM [inhibitor, full curve].

**Q.** For CCOc1ccc(CCNC(=O)CCN2N=C(c3ccc(OC)cc3)CCC2=O)cc1OCC, which Potency is on record?
**A.** The Potency was inconclusive: 31.6 µM [inhibitor, single point].

**Q.** With Cc1ccc(C)c(N2CCN(C(=O)CCn3c(=O)[nH]c4ccccc4c3=O)CC2)c1 as the molecule, how does the Potency read?
**A.** Its Potency is inconclusive: 10 µM [inhibitor, partial curve, poor fit].

**Q.** With CCCSCCCNC(=O)c1cc2n(n1)CCCN(Cc1ccc(C)cc1)C2=O as the molecule, how does the Potency read?
**A.** The Potency was inconclusive: 10 µM [inhibitor, partial curve, poor fit].

**Q.** With CN(C)c1ccc(/C=C/c2ncnc3ccccc23)cc1 as the molecule, how does the “activity, negative = inhibition” value read?
**A.** The value was inactive: 249%.

**Q.** With CCc1ccc(CNC(=O)C2CCCN(S(=O)(=O)N3CC(C)CC(C)C3)C2)cc1 (stereo not drawn) as the molecule, how does the Potency read?
**A.** Its Potency is inconclusive: 11.2 µM [inhibitor, single point].

**Q.** For CCc1ccc(NC(=O)[C@H](C)NC(=O)C2CCN(C(=O)[C@@H](N)C(C)C)CC2)cc1, which Potency is on record?
**A.** The Potency was inconclusive: 17.8 µM [inhibitor, partial curve, poor fit].

**Q.** For COc1ccc(/C=N/NC(=O)c2cc(C34CC5CC(CC(C5)C3)C4)[nH]n2)cc1OC, which Potency is on record?
**A.** Its Potency is inconclusive: 7.94 µM [inhibitor, partial curve, poor fit].

**Q.** Which Potency does the source give for CC(C)C[C@H](NC(=O)c1nc[nH]c1C(=O)NCCCCCNC(=O)OC(C)(C)C)C(=O)OCc1ccccc1 here?
**A.** Its Potency is inconclusive: 17.8 µM [inhibitor, partial curve, poor fit].

**Q.** For COc1ccc(CN(Cc2ccco2)c2cnc(S(C)(=O)=O)nc2C(=O)Nc2ccc(C)c(C)c2)cc1, which “activity, negative = inhibition” value is on record?
**A.** The value was inactive: 0%.

**Q.** For COc1ccc(CCNC(=O)N2CCOCC2)cc1, which Potency is on record?
**A.** The Potency was inconclusive: 1.26 µM [inhibitor, partial curve, poor fit].

**Q.** With Cc1cccc(CSc2nc3cccnc3n2Cc2ccc(C(=O)NCc3ccco3)cc2)c1 as the molecule, how does the Potency read?
**A.** The Potency was inconclusive: 14.1 µM [inhibitor, partial curve, poor fit].

**Q.** Which Potency does the source give for O=C(C1CCC(CNS(=O)(=O)c2ccccc2)CC1)N1CCCCC1 (stereo not drawn) here?
**A.** The Potency was inconclusive: 25.1 µM [inhibitor, single point].

**Q.** For CCCc1nnc(NC(=O)CCS(=O)(=O)c2ccccc2)s1, which “activity, negative = inhibition” value is on record?
**A.** Its value is inactive: -18.9%.

**Q.** Which Potency does the source give for Cc1ccc(-c2nnc(NCc3nc4ccccc4[nH]3)c3ccccc23)cc1S(=O)(=O)N1CCOCC1 here?
**A.** Its Potency is inconclusive: 25.1 µM [inhibitor, single point].

**Q.** With Nc1cc(C(=O)OCC(=O)NCCNC(=O)COC(=O)c2ccc(Cl)c(N)c2)ccc1Cl as the molecule, how does the “activity, negative = inhibition” value read?
**A.** Its value is inactive: 19.3%.

**Q.** With Cc1noc2ncnc(N3CCN(c4ccccc4F)CC3)c12 as the molecule, how does the “activity, negative = inhibition” value read?
**A.** The value was inactive: -4.88%.

**Q.** Which Potency does the source give for Cn1cc([N+](=O)[O-])c(C(=O)Nc2ccc(C3CCCCC3)cc2)n1 here?
**A.** The Potency was inconclusive: 35.5 µM [inhibitor, single point].

**Q.** With O=C(O)c1cn(-c2ccccc2)nc1-c1ccncc1 as the molecule, how does the “activity, negative = inhibition” value read?
**A.** Its value is inactive: 2.09%.

**Q.** For N#CCC(=O)Nc1ccc(C(=O)Nc2cccc(S(=O)(=O)N3CCCC3)c2)cc1, which “activity, negative = inhibition” value is on record?
**A.** Its value is inactive: -3.36%.

**Q.** With CNS(=O)(=O)c1cc(-c2nnc(Nc3ccc(NC(C)=O)cc3)c3ccccc23)ccc1C as the molecule, how does the Potency read?
**A.** Its Potency is inconclusive: 11.2 µM [inhibitor, partial curve, poor fit].

**Q.** With Cc1ccc(-c2nnc(N3CCN(c4ccccn4)CC3)c3ccccc23)cc1 as the molecule, how does the Potency read?
**A.** The Potency was inconclusive: 11.2 µM [inhibitor, partial curve, poor fit].

**Q.** Which Potency does the source give for Cc1cccc(C)c1OCCn1c(C2CC(=O)N(Cc3ccc(F)cc3)C2)nc2ccccc21 (stereo not drawn) here?
**A.** The Potency was inconclusive: 12.6 µM [inhibitor, partial curve, poor fit].

**Q.** Which Potency does the source give for O=C1N=c2ccccc2=C1c1sc(=S)n(NC(=O)c2ccccc2)c1O here?
**A.** Its Potency is inconclusive: 35.5 µM [inhibitor, single point].

**Q.** Which Potency does the source give for C=CCOc1c2ccc(C(=O)NCc3ccc(OC)cc3)cc2nn1C here?
**A.** The Potency was inconclusive: 0.112 µM [inhibitor, full curve, poor fit].

**Q.** For CC(=O)Nc1ccc(Nc2nc(C(F)(F)F)nc3c2nnn3Cc2ccccc2Cl)cc1, which “activity, negative = inhibition” value is on record?
**A.** Its value is inactive: -11.1%.

**Q.** Which Potency does the source give for Cc1ccc(C)c(N2CCN(C(=O)c3ccc(N4CCCC4=O)cc3)CC2)c1 here?
**A.** Its Potency is inconclusive: 11.2 µM [inhibitor, single point].

**Q.** With CCOc1cc(/C=N/NC(=O)Cc2ccc(C(F)(F)F)cc2[N+](=O)[O-])ccc1O as the molecule, how does the “activity, negative = inhibition” value read?
**A.** The value was inactive: -14.3%.

**Q.** With CC(=O)C1(O)Cc2c(O)c3c(c(O)c2C(OC2CC(N)C(O)C(C)O2)C1)C(=O)c1c(O)cccc1C3=O (stereo not drawn) as the molecule, how does the Potency read?
**A.** Its Potency is active: 1.58 µM.

**Q.** With Cn1c2ccccc2c(=O)c2ccc(C#CC3(N)CCCCC3)cc21 as the molecule, how does the Potency read?
**A.** The Potency was inconclusive: 35.5 µM [inhibitor, single point].

**Q.** Which “activity, negative = inhibition” value does the source give for CCN1CCN(c2ncnc3c2sc2nc(N4CCOCC4)c4c(c23)CCC4)CC1 here?
**A.** Its value is inactive: 17.4%.

**Q.** With COC(=O)c1cccc(CN2C(=O)SC(Nc3ccc(Br)cc3)C2=O)c1 (stereo not drawn) as the molecule, how does the Potency read?
**A.** Its Potency is inconclusive: 35.5 µM [inhibitor, single point].

**Q.** For Cc1ccc(NC(=O)CSc2nc3ccc(NC(=O)c4ccco4)cc3s2)c(C)c1, which Potency is on record?
**A.** The Potency was inconclusive: 35.5 µM [inhibitor, partial curve, poor fit].
